According to the supplement of paper PMC12217912:
The other results are listed elsewhere or left out. The full chains were built here from the parent and the listed change. Values near 0.05 are background.

B1: TEV protease; numbered along this chain (parent)
chain: MGESLFKGPRDYNPISSSICHLTNESDGHTTSLYGIGFGPFIITNKHLFRRNNGTLVVQSLHGVFKVKDTTTLQQHLVDGRDMIIIRMPKDFPPFPQKLKFREPQREERICLVTTNFQTKSMSSMVSDTSCTFPSGDGIFWKHWIQTKDGQCGSPLVSTRDGFIVGIHSASNFTNTNNYFTSVPKNFMELLTNQEAQQWVSGWRLNADSVLWGGHKVFMVKPEEPFQPVKEATQL

Variants of: B1
Assay: raw area under fraction-flipped curve 0-4 h after induction (AUC4h, not background-subtracted), DNA-recorder readout of cleavage of the substrate (dimensionless); higher = more cleavage of the substrate by the protease variant
Conditions: temperature: 34 °C; time window: 0-4 h after rhamnose induction
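Note: Bxb1 expression induced with 0.2% (w/v) L-rhamnose at OD600 near 0.5, cultures sampled hourly, flipped fraction per protease–substrate barcode pair counted by paired-end Illumina sequencing.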

Variant	area with substrate ENLYFES	area with substrate ENLYFGS	area with substrate ENLYFIS	area with substrate ENLYFMS	area with substrate ENLYFNS	area with substrate ENLYFRS	area with substrate ENLYFWS	area with substrate ENLYFYS	area with substrate ENLYFFS	area with substrate ENLYFHS
MGESLFKGPRDYNPISSSICHLTNESDGHTTSLYGIGFGPFIITNKHLFRRNNGTLVVQSLHGVFKVKDTTTLQQHLVDGRDMIIIRMPKDFPPFPQKLKFREPQREERICLVTTNFQTKSMSSMVSDTSCTFPSGDGIFWKHWIQTKDGQCGSPLVSTRDGFIVGIHSASNFTNTNNYFTSVPKNFMELLTNQEAQQWVSGWRLNADSVLWGGHKVFMVKPEEPFQPVKECTQL [A232C]	0.0487	0.0522	0.0621	0.051	0.0797	0.0389	0.0442	0.0395		
MGESLFKGPRDYNPISSSICHLTNESDGHTTSLYGIGFGPFIITNKHLFRRNNGTLVVQSLHGVFKVKDTTTLQQHLVDGRDMIIIRMPKDFPPFPQKLKFREPQREERICLVTTNFQTKSMSSMVSDTSCTFPSGDGIFWKHWIQTKDGQCGSPLVSTRDGFIVGIHSASNFTNTNNYFTSVPKNFMELLTNQEAQQWVSGWRLNADSVLWGGHKVFMVKPEEPFQPVKEMTQL [A232M]	0.0994		0.0565	0.0849	0.0569		0.0311		0.0694	0.0566
MGESLFKGPRDYNPISSSICHLTNESDGHTTSLYGIGFGPFIITNKHLFRRNNGTLVVQSLHGVFKVKDTTTLQQHLVDGRDMIIIRMPKDFPPFPQKLKFREPQREERICLVTTNFQTKSMSSMVSDTSCTFPSGDGIFWKHWIQTKDGQCGSPLVSTRDGFIVGIHSASNFTNTNNYFTSVPKNFMELLTNQEAQQWVSGWRLNADSVLWGGHKVFMVKPEEPFQPVKETTQL [A232T]	0.0634		0.0637		0.0742		0.0495		0.0665	
MGESLFKAPRDYNPISSSICHLTNESDGHTTSLYGIGFGPFIITNKHLFRRNNGTLVVQSLHGVFKVKDTTTLQQHLVDGRDMIIIRMPKDFPPFPQKLKFREPQREERICLVTTNFQTKSMSSMVSDTSCTFPSGDGIFWKHWIQTKDGQCGSPLVSTRDGFIVGIHSASNFTNTNNYFTSVPKNFMELLTNQEAQQWVSGWRLNADSVLWGGHKVFMVKPEEPFQPVKEATQL [G8A]			0.0618					0.0524	0.0593	0.0669
MGESLFKGPRDYNPISSSICHLTNESDGHTTSLYGIGFGPFIITNKHLFRRNNGTLVVQSLHGVFKVKDTTTLQQHLVDGRDMIIIRMPKDFPPFPQKLKFREPQREERICLVTTNFQTKSMSSMVSDTSCTFPSGDGIFWKHKIQTKDGQCGSPLVSTRDGFIVGIHSASNFTNTNNYFTSVPKNFMELLTNQEAQQWVSGWRLNADSVLWGGHKVFMVKPEEPFQPVKEATQL [W144K]		0.0598	0.0587		0.0713			0.0648	0.0734	
MGESLFKGPRDYNPISSSICHLTNESDGHTTSLYGIGFGPFIITNKHLFRRNNGTLVVQSLHGVFKVKDTTTLQQHLVDGRDMIIIRMPKDFPPFPQKLKFREPQREERICLVTTNFQTKSMSSMVSDTSCTFPSGDGIFWKHWIQTKDGQCGSPLVSTRDGFIVGIHSASNFTNTNNYFTSVPKNFMELLTNQEAQQWISGWRLNADSVLWGGHKVFMVKPEEPFQPVKEATQL [V200I]		0.0468								0.0479
MGESLFKDPRDYNPISSSICHLTNESDGHTTSLYGIGFGPFIITNKHLFRRNNGTLVVQSLHGVFKVKDTTTLQQHLVDGRDMIIIRMPKDFPPFPQKLKFREPQREERICLVTTNFQTKSMSSMVSDTSCTFPSGDGIFWKHWIQTKDGQCGSPLVSTRDGFIVGIHSASNFTNTNNYFTSVPKNFMELLTNQEAQQWVSGWRLNADSVLWGGHKVFMVKPEEPFQPVKEATQL [G8D]			0.0548	0.0651						
MGESLFKGPRDYNPISSSICHLTNESDGHTTSLYGIGFGPFIITNKHLFRRNNGTLVVQSLHGVFKVKDTTTLQQHLVDGRDMIIIRDPKDFPPFPQKLKFREPQREERICLVTTNFQTKSMSSMVSDTSCTFPSGDGIFWKHWIQTKDGQCGSPLVSTRDGFIVGIHSASNFTNTNNYFTSVPKNFMELLTNQEAQQWVSGWRLNADSVLWGGHKVFMVKPEEPFQPVKEATQL [M88D]			0.0285	0.0314						
MGESLFKGPRDYNPISSSICHLTNESDGHTTSLYGIGFGPFIITNKHLFRRNNGTLVVQSLHGVFKVKDTTTLQQHLVDGRDMIIIRMPKDFPPFPQKLKFREPQREERICLVTTNFQTKSMSSMVSDTSCTFPSGDGIFWKHWIQTKDGQCGSPLVSTRDGFIVGIHSASNFTNTNNYFTSVPKNFMELLTNQEAQQWWSGWRLNADSVLWGGHKVFMVKPEEPFQPVKEATQL [V200W]			0.0625							
MGESLFKGPRDYNPISSSICHLTNESDGHTTSLYGIGFGPFIITNKHLFRRNNGTLVVQSLHGVFKVKDTTTLQQHLVDGRDMIIIRMPKDFPPFPQKLKFREPQREERICLVTTNFQTKSMSSMVSDTSCTFPSGDGIFWKHWIQTKDGQCGSPLVSTRDGFIVGIHSASNFTNTNNYFTSVPKNFMELLTNQEAQQWVSGWRLNAKSVLWGGHKVFMVKPEEPFQPVKEATQL [D208K]			0.0635					0.0392		
MGESLFKGPRDYNPISSSICHLTNESDGHTTSLYGIGFGPFIITNKHLFRRNNGTLVVQSLHGVFKVKDTTTLQQHLVDGRDMIIIRMPKDFPPFPQKLKFREPQREERICLVTTNFQTKSMSSMVSDTSCTFPSGDGIFWKHWIQTKDGQCGSPLVSTRDGFIVGIHSASNFTNTNNYFTSVPKNFMELLTNQEAQQWVSGWRLNADSVLWGGHIVFMVKPEEPFQPVKEATQL [K216I]			0.0487							
MGESLFKGPRDYNPISSSICHLTNESDGHTTSLYGIGFGPFIITNKHLFRRNNGTLVVQSLHGVFKVKDTTTLQQHLVDGRDMIIIRMPKDFPPFPQKLKFREPQREERICLVTTNFQTKSMSSMVSDTSCTFPSGDGIFWKHWIQTKDGQCGSPLVSTRDGFIVGIHSASNFTNVNNYFTSVPKNFMELLTNQEAQQWVSGWRLNADSVLWGGHKVFMVKPEEPFQPVKEATQL [T176V]					0.0665		0.0643			
MGESLFKGPRDYNPISSSICHLTNESDGHTTSLYGIGFGPFIITNKHLFRRNNGTLVVQSLHGVFKVKDTTTLQQHLVDGRDMIIIRMPKDFPPFPQKLKFREPQREERICLVTTNFQTKSMSSMVSDTSCTFPSGDGIFWKHWIQTKDGQCGSPLVSTRDGFIVGIHSASNFTNTNNYFTSVPKNFMELLTNQEAQQWVSGWRLNADSVLWGGHKVFMVKPEEPFQPVKEFTQL [A232F]				0.0725	0.0613		0.0469			

Same assay, conditions: temperature: 34 °C; time window: 0-4 h after rhamnose induction

Variant	area with substrate ENLYFPS	area with substrate ENLYFTS	area with substrate ENLYFKS	area with substrate ENLYFSS	area with substrate ENLYFVS	area with substrate ENLYFLS
MGESLFKGPRDYNPISSSICHLTNESDGHTTSLYGIGFGPFIITNKHLFRRNNGTLVVQSLHGVFKVKDTTTLQQHLVDGRDMIIIRMPKDFPPFPQKLKFREPQREERICLVTTNFQTKSMSSMVSDTSCTFPSGDGIFWKHWIQTKDGQCGSPLVSTRDGFIVGIHSASNFTNTNNYFTSVPKNFMELLTNQEAQQWVSGWRLNADSVLWGGHKVFMVKPEEPFQPVKEMTQL [A232M]	0.0564	0.0659				
MGESLFKGPRDYNPISSSICHLTNESDGHTTSLYGIGFGPFIITNKHLFRRNNGTLVVQSLHGVFKVKDTTTLQQHLVDGRDMIIIRMPKDFPPFPQKLKFREPQREERICLVTTNFQTKSMSSMVSDTSCTFPSGDGIFWKHWIQTKDGQCGSPLVSTRDGFIVGIHSASNFTNTNNYFTSVPKNFMELLTNQEAQQWVSGWRLNADSVLWGGHKVFMVKPEEPFQPVKETTQL [A232T]	0.0557	0.0486	0.0599	0.0488		
MGESLFKAPRDYNPISSSICHLTNESDGHTTSLYGIGFGPFIITNKHLFRRNNGTLVVQSLHGVFKVKDTTTLQQHLVDGRDMIIIRMPKDFPPFPQKLKFREPQREERICLVTTNFQTKSMSSMVSDTSCTFPSGDGIFWKHWIQTKDGQCGSPLVSTRDGFIVGIHSASNFTNTNNYFTSVPKNFMELLTNQEAQQWVSGWRLNADSVLWGGHKVFMVKPEEPFQPVKEATQL [G8A]			0.0611			
MGESLFKGPRDYNPISSSICHLTNESDGHTTSLYGIGFGPFIITNKHLFRRNNGTLVVQSLHGVFKVKDTTTLQQHLVDGRDMIIIRMPKDFPPFPQKLKFREPQREERICLVTTNFQTKSMSSMVSDTSCTFPSGDGIFWKHKIQTKDGQCGSPLVSTRDGFIVGIHSASNFTNTNNYFTSVPKNFMELLTNQEAQQWVSGWRLNADSVLWGGHKVFMVKPEEPFQPVKEATQL [W144K]	0.0346			0.0598		
MGESLFKGPRDYNPISSSICHLTNESDGHTTSLYGIGFGPFIITNKHLFRRNNGTLVVQSLHGVFKVKDTTTLQQHLVDGRDMIIIRMPKDFPPFPQKLKFREPQREERICLVTTNFQTKSMSSMVSDTSCTFPSGDGIFWKHWIQTKDGQCGSPLVSTRDGFIVGIHSASNFTNTNNYFTSVPKNFMELLTNQEAQQWISGWRLNADSVLWGGHKVFMVKPEEPFQPVKEATQL [V200I]	0.0952	0.0613				
MGESLFKDPRDYNPISSSICHLTNESDGHTTSLYGIGFGPFIITNKHLFRRNNGTLVVQSLHGVFKVKDTTTLQQHLVDGRDMIIIRMPKDFPPFPQKLKFREPQREERICLVTTNFQTKSMSSMVSDTSCTFPSGDGIFWKHWIQTKDGQCGSPLVSTRDGFIVGIHSASNFTNTNNYFTSVPKNFMELLTNQEAQQWVSGWRLNADSVLWGGHKVFMVKPEEPFQPVKEATQL [G8D]	0.0793					
MGESLFKGPRDYNPISSSICHLTNESDGHTTSLYGIGFGPFIITNKHLFRRNNGTLVVQSLHGVFKVKDTTTLQQHLVDGRDMIIIRMPKDFPPFPQKLKFREPQREERICLVTTNFQTKSMSSMVSDTSCTFPSGDGIFWKHWIQTKDGQCGSPLVSTRDGFIVGIHSASNFTNTNNYFTSVPKNFMELLTNQEAQQWWSGWRLNADSVLWGGHKVFMVKPEEPFQPVKEATQL [V200W]	0.0748	0.0514	0.057			
MGESLFKGPRDYNPISSSICHLTNESDGHTTSLYGIGFGPFIITNKHLFRRNNGTLVVQSLHGVFKVKDTTTLQQHLVDGRDMIIIRMPKDFPPFPQKLKFREPQREERICLVTTNFQTKSMSSMVSDTSCTFPSGDGIFWKHWIQTKDGQCGSPLVSTRDGFIVGIHSASNFTNTNNYFTSVPKNFMELLTNQEAQQWVSGWRLNAKSVLWGGHKVFMVKPEEPFQPVKEATQL [D208K]	0.0633		0.0555		0.0578	
MGESLFKGPRDYNPISSSICHLTNESDGHTTSLYGIGFGPFIITNKHLFRRNNGTLVVQSLHGVFKVKDTTTLQQHLVDGRDMIIIRMPKDFPPFPQKLKFREPQREERICLVTTNFQTKSMSSMVSDTSCTFPSGDGIFWKHWIQTKDGQCGSPLVSTRDGFIVGIHSASNFTNTNNYFTSVPKNFMELLTNQEAQQWVSGWRLNADSVLWGGHIVFMVKPEEPFQPVKEATQL [K216I]		0.0719		0.0544		
MGESLFKGPRDYNPISSSICHLTNESDGHTTSLYGIGFGPFIITNKHLFRRNNGTLVVQSLHGVFKVKDTTTLQQHLVDGRDMIIIRMPKDFPPFPQKLKFREPQREERICLVTTNFQTKSMSSMVSDTSCTFPSGDGIFWKHWIQTKDGQCGSPLVSTRDGFIVGIHSASNFTNVNNYFTSVPKNFMELLTNQEAQQWVSGWRLNADSVLWGGHKVFMVKPEEPFQPVKEATQL [T176V]	0.0748		0.0574		0.0588	
MGESLFKGPRDYNPISSSICHLTNESDGHTTSLYGIGFGPFIITNKHLFRRNNGTLVVQSLHGVFKVKDTTTLQQHLVDGRDMIIIRMPKDFPPFPQKLKFREPQREERICLVTTNFQTKSMSSMVSDTSCTFPSGDGIFWKHWIQTKDGQCGSPLVSTRDGFIVGIHSASNFTNTNNYFTSVPKNFMELLWNQEAQQWVSGWRLNADSVLWGGHKVFMVKPEEPFQPVKEATQL [T192W]						0.0759
